According to the supplement of paper PMC3334620:
Whole data set: some 33,000 sequences, median “E-score (-0.5 to 0.5)” near -0.016, cut for the highest 2% near 0.32. The list shows a part of the results.

Target: T1, Stp1 (UniProt B3LFK1)
T1 sequence: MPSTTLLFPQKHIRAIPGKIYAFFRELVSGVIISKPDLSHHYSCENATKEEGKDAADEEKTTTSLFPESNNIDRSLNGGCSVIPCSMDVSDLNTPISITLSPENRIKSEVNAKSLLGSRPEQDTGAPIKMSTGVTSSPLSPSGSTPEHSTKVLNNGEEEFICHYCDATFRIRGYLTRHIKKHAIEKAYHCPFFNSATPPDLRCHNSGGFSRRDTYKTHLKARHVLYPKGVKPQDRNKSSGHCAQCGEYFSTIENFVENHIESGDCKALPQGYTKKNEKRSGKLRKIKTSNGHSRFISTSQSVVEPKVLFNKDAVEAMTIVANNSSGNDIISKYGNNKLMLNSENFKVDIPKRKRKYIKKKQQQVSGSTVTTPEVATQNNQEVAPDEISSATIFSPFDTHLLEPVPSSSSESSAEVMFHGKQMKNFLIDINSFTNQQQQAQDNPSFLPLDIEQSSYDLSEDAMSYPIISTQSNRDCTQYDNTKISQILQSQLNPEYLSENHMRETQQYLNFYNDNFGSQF
Test: PBM E-score (8-mer binding enrichment) (E-score (-0.5 to 0.5)); higher = stronger / more preferred TF binding; most listed sequences are background and not binding sites
Conditions: protein concentration: 200 nM; construct: GST-full length
Procedure: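 Universal 'all 10-mer' protein binding microarrays (Agilent AMADID 015681) probed with GST-tagged S. cerevisiae TFs (full-length or DBD) made by in vitro transcription/translation (PURExpress), about 100-200 nM. Bound TF was detected with fluorescent anti-GST. Each ungapped 8-mer (which stands for itself and its reverse complement) is scored by the PBM enrichment score (E-score), a modified Wilcoxon-Mann-Whitney statistic from -0.5 to +0.5, computed with the Universal PBM Analysis Suite. Scale: above 0.35 generally sequence-specific binding.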

Sequence	PBM E-score
AATAATGA	0.207
GAAAATGA	-0.0591
ATGCGAAT	0.0664
AGATAGGG	-0.118
CGATAAGC	-0.0171
TGGAGGAA	-0.11
GAATGCAA	-0.0009
ACCGGTAC	-0.287
AGACCAAG	-0.0841
AAGTCATC	-0.159
AGAAGGCC	0.0514
AAGAACGG	0.102
AGTCCACT	-0.218
AAGAAGGT	-0.0552
AAAAGTCC	-0.0528
CTACCGCC	-0.0357
CTGCCAAA	-0.0704
CGATTCTA	0.114
GGGCTCCA	-0.168
CAGGTACA	-0.0186
CATATTCC	-0.14
AAAGCATA	-0.0516
ATCTATAA	0.0394
GTATGGAA	-0.1
GATAGTCA	-0.0929

Sequence	PBM E-score
GCTCTTAA	0.132
GGGGTAGA	-0.139
CCTGTGAA	-0.0561
AATAGCTA	-0.131
AACTACAC	0.102
CCGCCAAA	0.0147
CCACCCAG	-0.153
TACACAAA	0.306
GACCAAAA	0.193
GCGGATAA	0.276
AACTCAGT	-0.082
GAACCATC	-0.053
CACGCGGA	0.294
CCCTGACG	-0.16
CCCGGGGC	-0.149
ATGTACAC	-0.0825
GAGCTTAC	-0.0435
AAGTCGCT	-0.206
GGAGGCCC	-0.298
CGCCGGGC	0.041
CATTAAAA	0.245
ATGCTAAT	0.00496
CGTGATGA	0.0223
GCTAACCA	-0.17
AGCCCTAG	-0.145

Sequence	PBM E-score
TCACCTCA	0.0111
TATTGTAA	0.152
CGGCTCAA	0.351
AGGCCTCC	-0.164
ATTGGCTG	-0.127
GGATTCAC	-0.0343
ATTCGCCA	0.0506
CTGACCAC	-0.054
GCCAAGAC	-0.167
AAAATCTC	-0.0545
CTTCGAGC	-0.0739
GGTAGCCA	-0.0378
CCCAGGGG	-0.233
ACAAGACT	-0.168
TATCGAGA	-0.0215
AGAGCAGG	-0.078
AAGGCCGC	0.314
AGATTGGC	-0.21
CCCGCTCC	-0.241
CAGGCACG	0.174
AAGTTGCG	-0.025
AATGTTGC	0.119
ATAGCAAT	0.0963
GGTTGCGA	-0.125
CGGGGTTA	0.0929

Sequence	PBM E-score
ATGACCAG	-0.16
AGATGAAC	0.102
ACGTTCGA	-0.028
AAAATGTA	0.144
GGTGGACA	-0.128
AAATTCGG	0.045
CTATATCA	0.191
ATAGAGTG	-0.0347
CTTGATTA	-0.12
GAAAGACC	-0.321
CGACTCTC	-0.16
ACGGTTCG	-0.00398
GCTAGAGA	-0.00314
GAGATGAA	-0.105
AAAATAGG	0.0621
CCGGCGCC	0.367
CTTTCATA	0.134
GTGACAAC	-0.0855
AAGCCTCC	-0.0554
CTGTGTAA	0.0786
TAGGGAAA	-0.00281
AATCATAT	0.145
CAGGATAC	0.0291
GTCTGGCA	-0.185
AACTTAGG	-0.132

Sequence	PBM E-score
TCAACTAA	0.147
GACGTTAA	0.0757
AGAGTAAC	-0.0837
ACGATAGG	-0.0773
CTTAGGAA	0.0134
GAGACGAC	-0.104
CAAATTAC	-0.0375
CCATACAA	0.0696
AAAAATCA	0.139
GTTCAGGA	0.0369
CCGAAAAA	0.223
AGGTGTCA	0.0452
TGTTCAAA	0.146
GGGTGCGA	-0.279
GCGTTAGC	0.0922
CACTTTCC	-0.224
ACCCGAAG	-0.183
ATCATAGG	-0.0255
AACAATCA	0.139
CAATCACA	-0.0178
ATGAATTC	0.188
AAACCCAA	0.0522
TGTGTAAA	0.228
ACCGTAGT	-0.0388
CCGTACAG	0.235

Sequence	PBM E-score
CGGGGAAC	-0.0321
AAAATCGC	0.117
GGCCTACA	-0.107
GATGGGGC	0.103
CGACCTAC	-0.244
ACCCGCGC	0.232
CCAAACTC	0.0339
AACGCTCG	0.119
ATGGCCAT	-0.0834
AATCGCCT	0.302
GTCGGGTA	-0.066
GGGTCTAA	-0.102
CTTAGATA	0.0095
ATACCGTA	0.133
GCCCACCC	0.00271
CTGGGGTA	-0.105
CTGTTCGC	0.176
GTTACTAA	0.127
ACCAAGTA	0.0595
GATGGAAA	-0.107
TCCTCTCA	-0.194
CTATTGTC	-0.0342
ACGGGAAT	-0.0268
GTTGTGAA	0.116
CTCTCCCA	-0.258

Sequence	PBM E-score
GTTGGAGA	-0.0668
CCGGATAA	0.00559
ATTTTTCG	0.177
GGGTTCAA	-0.0843
ATTTACTA	0.0619
GTATATGA	0.0505
ACGGCAGG	0.343
AAGGATGT	-0.0561
GGCGGGTA	-0.0661
AGTTCATC	-0.111
AAATATTG	0.191
CCGGCAAG	-0.0231
GTCTATGA	0.106
GGCGACAC	0.154
CGTCTCGA	0.0607
AAGGATCC	-0.118
AATGATTA	0.156
CACCGTTA	0.0959
AGGCTAAA	0.14
CCGCCCAC	0.0691
CACTCATG	-0.0672
ACGCACAG	-0.00964
